# Results published in the supplement of paper PMC3334620.
# Over roughly 33,000 sequences, “E-score (-0.5 to 0.5)” has its median near -0.054; the highest 2% begin near 0.35. The list shows a part of the results.
# Target: T1, Stb5 (UniProt P38699)
# T1 sequence: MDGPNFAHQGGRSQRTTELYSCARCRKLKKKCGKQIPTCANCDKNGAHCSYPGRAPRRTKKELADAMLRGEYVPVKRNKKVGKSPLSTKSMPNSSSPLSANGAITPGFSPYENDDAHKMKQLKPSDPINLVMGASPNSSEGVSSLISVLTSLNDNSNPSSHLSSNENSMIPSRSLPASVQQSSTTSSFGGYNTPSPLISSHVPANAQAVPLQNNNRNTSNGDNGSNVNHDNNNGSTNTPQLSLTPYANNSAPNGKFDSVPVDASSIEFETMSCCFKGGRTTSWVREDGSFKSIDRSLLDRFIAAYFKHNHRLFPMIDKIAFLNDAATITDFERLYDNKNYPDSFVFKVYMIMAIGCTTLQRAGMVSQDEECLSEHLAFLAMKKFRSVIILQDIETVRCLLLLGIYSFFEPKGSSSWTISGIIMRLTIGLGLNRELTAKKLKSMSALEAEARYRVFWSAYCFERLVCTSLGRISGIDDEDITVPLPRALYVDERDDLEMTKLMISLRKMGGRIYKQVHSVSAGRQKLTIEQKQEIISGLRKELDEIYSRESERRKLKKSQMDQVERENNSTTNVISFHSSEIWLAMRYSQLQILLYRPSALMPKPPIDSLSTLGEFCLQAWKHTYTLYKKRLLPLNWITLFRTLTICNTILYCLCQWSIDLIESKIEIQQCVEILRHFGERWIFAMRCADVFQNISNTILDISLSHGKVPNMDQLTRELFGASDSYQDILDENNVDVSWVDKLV
# Assay: PBM E-score (8-mer binding enrichment) (E-score (-0.5 to 0.5)); higher = stronger / more preferred TF binding; most listed sequences are background and not binding sites
# Conditions: protein concentration: 200 nM; construct: GST-full length
# Outline: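 PURExpress in vitro transcription/translation supplied GST-tagged yeast transcription factors, either full-length or DNA-binding domain. Applied at about 100-200 nM to universal all-10-mer Agilent arrays double-stranded by primer extension, the bound protein was detected with fluorescent anti-GST. E-scores, modified Wilcoxon-Mann-Whitney statistics, were given by the Universal PBM Analysis Suite to ungapped eight-base words pooled with their reverse complements after masliner normalisation.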
row,Sequence,PBM E-score
1,TGATGTAA,0.0351
2,GAGTAAAC,-0.143
3,GTTAGAAC,0.0768
4,AGCTCGGG,0.108
5,ATTACGTA,0.0812
6,GCGATGTA,-0.00528
7,AATCAGTA,-0.135
8,ACCTCTGC,-0.169
9,GGACGTGA,-0.111
10,AGTCTGTG,-0.27
11,AGTACCAG,-0.0537
12,AATGCTTC,-0.107
13,AGATATAA,0.138
14,ATCGTTCA,-0.0773
15,CTTTTTCA,-0.244
16,CCAAGACC,0.1
17,CTAAAGAC,0.0363
18,CCCTAAGA,-0.0919
19,ACTGATTG,-0.359
20,AGGGAACG,-0.0157
21,AACCTATT,-0.00616
22,ACCTGGCG,0.0914
23,TCAGTGAA,-0.111
24,ATCCACCC,-0.0516
25,CCATGATC,-0.0309

row,Sequence,PBM E-score
1,CAACTGCC,0.0337
2,GGCCTAAC,0.181
3,GCTAGGGA,-0.193
4,GATCCAGC,-0.161
5,ATTCTGGC,-0.0252
6,AAAGAAAC,0.0303
7,AAAAATCC,0.262
8,ATGAGCAC,-0.119
9,ACGTGAAG,-0.205
10,CAGCGAGA,-0.198
11,CCACGTAC,-0.199
12,AGCTATAA,0.0235
13,CGGGGAAG,0.176
14,GGGTCAAC,0.0164
15,TGAGGGCA,-0.259
16,GGGTTCGA,-0.145
17,ACATCTAC,-0.0618
18,TCCTACCA,-0.166
19,ATTCCTTG,-0.116
20,GCAGTTAA,0.166
21,GAAGGAAA,-0.104
22,ATTAGGGC,-0.106
23,AATATCCC,0.291
24,ATTGAACC,0.0635
25,CAAATGCG,-0.0783

row,Sequence,PBM E-score
1,AACGTCAG,-0.286
2,CATCGTTC,-0.0976
3,AGCCGCAC,0.152
4,AACGCTGT,0.129
5,GGTGTCAA,0.225
6,GAACTTCA,-0.157
7,GAGATAGC,-0.0635
8,AGTGCCGA,0.387
9,CCCGCTAG,0.272
10,CAGAGTTC,-0.0957
11,CGCCTCAC,-0.109
12,GCTAAAAC,0.146
13,AGGACGGG,0.175
14,TAGCGTAA,-0.0609
15,CGCCCTTC,-0.00564
16,CCTGACGA,-0.256
17,CTAGCCTA,0.0929
18,GGTACAAC,-0.0464
19,CTCTGCGC,-0.116
20,AGTATTGC,-0.0296
21,CCAGGCAC,-0.0587
22,CCCTCTCG,-0.0887
23,CTCATTGC,-0.252
24,GAATTTCA,-0.15
25,ATTAGATA,-0.261

row,Sequence,PBM E-score
1,AGCCTCCA,-0.0711
2,CAACCAAC,-0.174
3,TTCGGAAA,0.133
4,AGGGTAAG,-0.0998
5,AGATGAAT,-0.326
6,TAAACGCA,0.058
7,CCGGACTA,0.304
8,TCCCACGA,-0.124
9,GCTAGGTA,-0.0526
10,AGGCTTAC,-0.168
11,AAAAACGT,-0.149
12,CGGCATAC,0.232
13,AAGTTGTG,-0.248
14,CACACGAC,0.059
15,AACAAATA,0.0288
16,ATTACACG,0.00285
17,GGAGCGAC,0.0737
18,GAACTCTA,-0.101
19,CGTTGGGC,0.0736
20,AGGCTGAT,-0.25
21,GCTCCCCC,0.0364
22,CCAAAAAA,-0.0145
23,ACCACATA,0.0101
24,CATACGTA,-0.0461
25,GTGATCTA,-0.191

row,Sequence,PBM E-score
1,ACGCATCG,-0.0578
2,GAACGTAC,-0.177
3,CTCTTTAA,-0.103
4,ATAACTCA,-0.0636
5,TCAATTAA,-0.0317
6,ACTCTTGA,-0.176
7,GGGCATAA,0.197
8,TACCTGCA,-0.137
9,ACCCCGCT,0.437
10,CACTCGGA,-0.0784
11,GATAGATC,0.111
12,CCAGTTGA,-0.133
13,GAGAAAGC,0.0247
14,ACTCCTGA,-0.211
15,AACCACGT,-0.246
16,AATCATAA,-0.157
17,TAAGTGCA,-0.0835
18,ATGTGGTC,-0.168
19,AGACACTA,-0.101
20,GATAGGGA,-0.134
21,ACCCAAAT,-0.135
22,CCGCTACC,0.336
23,ATTCCAAG,-0.153
24,GGATGCTA,-0.0173
25,ATGTCCCA,-0.138

row,Sequence,PBM E-score
1,CAGCTCGA,-0.292
2,AAGTTGTC,-0.0935
3,AGTCGCCG,0.191
4,AAAATTCT,0.0376
5,GAAATCAC,0.137
6,CGGGGATC,0.168
7,CTGTTCCC,0.0484
8,AGTACACG,-0.0595
9,GACGCGTA,-0.174
10,GCTGATTA,-0.0244
11,AGAAACGG,0.24
12,CATACTAC,-0.0614
13,GGTAACAA,0.209
14,CTTAATGC,-0.024
15,AAACGGTG,0.316
16,AAACAATT,-0.225
17,TACGCCCA,-0.144
18,CGGTATAG,0.179
19,CATCCTTC,-0.0704
20,CACCGGAG,0.379
21,AGGGGAGC,-0.222
22,ACAAACCC,0.152
23,AACAATAT,0.133
24,GGACGGCC,0.188
25,CTAATTAA,-0.204

row,Sequence,PBM E-score
1,CCTTCGCC,0.122
2,ATGCTCAC,-0.141
3,ACATCTCC,0.0356
4,ATTCGCGG,0.171
5,AAGTCTAA,-0.131
6,TGTAGAAA,-0.141
7,TAGGTAAA,0.0206
8,CGGGTCGC,0.219
9,TCTCATAA,-0.0776
10,CAATTTAG,-0.193
11,AGCTTCCC,-0.242
12,AACCACTT,-0.109
13,TGCTACAA,0.0285
14,CCCCTCAG,-0.107
15,AACCTGGA,-0.291
16,CATACAAC,-0.208
17,CCGGATTC,0.148
18,CTCCTACA,-0.171
19,TAAGATTA,-0.0216
20,CTCGACGC,-0.0256
21,CCATCTAC,0.0456
22,CCAGATGG,-0.137
